# This is one part of the list. Single values of this set are uncertain. Values with irradiation are relative to irradiated vehicle.
# Key:
# [1] = test system: A549-Dual; test: NF-kB reporter (SEAP) activity, viability-corrected, relative to vehicle (fold change vs vehicle); higher = more activation of STING-IRF / NF-kB immune response reporter; details: 10 µM
# [2] = test system: A549-Dual; test: ISRE reporter (Lucia luciferase) activity, viability-corrected, relative to vehicle (fold change vs vehicle); higher = more activation of STING-IRF / NF-kB immune response reporter; details: 10 µM
# 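Wherever NF-kB reporter (SEAP) activity, viability-corrected, relative to vehicle is given: viability correction based on the alamar blue assay, with concentrations leaving 10% survival or less dropped.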
SMILES,NF-kB reporter ([1]; irradiation: 8 Gy/4 fr),NF-kB reporter ([1]; irradiation: none),ISRE reporter ([2]; irradiation: 8 Gy/4 fr),ISRE reporter ([2]; irradiation: none)
CCCC(CCC)C(=O)OC1CC2CCC(C1)[N+]2(C)C.[Br-] (stereo unspecified) [Anisotropine Methylbromide],0.971,0.693,1.02,0.651
CN(C)CCC=C1c2ccccc2C(C)(C)c2ccccc21.Cl [Melitracen hydrochloride],0.415,0.439,0.458,1.17
Cl.NCCCC(N)(C(=O)O)C(F)F.O (stereo unspecified) [Eflornithine hydrochloride hydrate],1.07,0.872,1.06,0.691
Cc1ccnc2c1NC(=O)c1cccnc1N2C1CC1 [Nevirapine],0.571,0.912,0.686,0.832
CC(=O)OCC(=O)C12OC(C)(C)OC1CC1C3CC(F)C4=CC(=O)C=CC4(C)C3(F)C(O)CC12C (stereo unspecified) [Fluocinonide],0.314,0.926,0.0495,0.3
OCC(O)C(O)C(O)C(O)CO (stereo unspecified) [Sorbitol],0.679,1.27,0.661,1.03
CCC1(C)CC(=O)NC1=O (stereo unspecified) [Ethosuximide],0.595,0.595,0.511,0.708
CS(=O)(=O)c1ccc(C2=C(c3ccccc3)C(=O)OC2)cc1 [Rofecoxib],0.701,0.938,0.6,0.681
CCC(C(C)O)n1ncn(-c2ccc(N3CCN(c4ccc(OCC5COC(Cn6cncn6)(c6ccc(F)cc6F)C5)cc4)CC3)cc2)c1=O (stereo unspecified) [Posaconazole],0.819,1.23,0.783,2.48
C=C1CCN(C(C)C(O)(Cn2cncn2)c2ccc(F)cc2F)CC1 (stereo unspecified) [Efinaconazole],0.729,0.849,0.541,0.751
CCCc1nc(C)c2c(=O)[nH]c(-c3cc(S(=O)(=O)N4CCN(CC)CC4)ccc3OCC)nn12.Cl.O.O.O [Vardenafil HCl Trihydrate],1.06,0.692,1.43,0.872
N/N=c1\[nH][nH]/c(=N\N)c2ccccc12.O=S(=O)(O)O [Dihydralazine sulphate],0.787,0.882,0.467,0.392
CCCCCCc1ccc(O)cc1O [Hexylresorcinol],0.717,0.969,0.605,0.652
NC(=O)c1ccc[n+](C2OC(COP(=O)([O-])OP(=O)(O)OCC3OC(n4cnc5c(N)ncnc54)C(O)C3O)C(O)C2O)c1 (stereo unspecified),0.442,0.494,0.0738,0.151
Cl.Cl.Fc1ccc(C(c2ccc(F)cc2)N2CCN(C/C=C/c3ccccc3)CC2)cc1 [Flunarizine 2HCl],0.662,0.889,0.678,0.938
CC(C)(C)NC(=O)C1CN(Cc2cccnc2)CCN1CC(O)CC(Cc1ccccc1)C(=O)NC1c2ccccc2CC1O.O=S(=O)(O)O (stereo unspecified) [Indinavir Sulfate],0.765,0.931,0.712,0.751
Cc1nc2n(c(=O)c1CCN1CCC(c3noc4cc(F)ccc34)CC1)CCCC2O (stereo unspecified) [Paliperidone],1.02,1.08,0.82,0.547
NC(=O)c1cc[n+](CC2=C(C(=O)[O-])N3C(=O)C(NC(=O)C(c4ccccc4)S(=O)(=O)[O-])C3SC2)cc1.[Na+] (stereo unspecified) [Cefsulodin sodium],0.823,0.905,0.801,0.734
Cc1cnc(C(=O)NCCc2ccc(S(=O)(=O)NC(=O)NC3CCCCC3)cc2)cn1 [Glipizide],0.654,1.08,0.568,0.857
CN(CCOc1ccc(CC2SC(=O)NC2=O)cc1)c1ccccn1.Cl (stereo unspecified) [Rosiglitazone HCl],0.627,0.915,0.533,0.686
O=C(O)c1ccccc1C(=O)Nc1ccc(S(=O)(=O)Nc2nccs2)cc1 [Phthalylsulfathiazole],0.698,0.944,0.761,0.677
O=C(c1ccc(F)cc1)C1CCN(CCn2c(=O)[nH]c3ccccc3c2=O)CC1 [Ketanserin],1.07,0.876,0.971,0.682
CS(=O)(=O)c1cccc(CC(NC(=O)c2c(Cl)cc3c(c2Cl)CCN(C(=O)c2ccc4ccoc4c2)C3)C(=O)O)c1 (stereo unspecified) [Lifitegrast],1.4,1.22,1.16,0.899
CC12CCC(CC1=O)C2(C)C (stereo not drawn) [(+)-Camphor],0.86,0.925,0.94,0.878
CC(C[N+](C)(C)C)OC(N)=O.[Cl-] (stereo unspecified) [Bethanechol chloride],0.907,0.928,0.969,0.766
OCCc1ccccc1 [Phenethyl alcohol],0.804,1.07,0.771,0.842
Oc1c(Cl)cc(Cl)cc1Sc1cc(Cl)cc(Cl)c1O [Bithionol],1.59,2.7,0.163,0.675

SMILES,NF-kB reporter ([1]; irradiation: 8 Gy/4 fr),NF-kB reporter ([1]; irradiation: none),ISRE reporter ([2]; irradiation: 8 Gy/4 fr),ISRE reporter ([2]; irradiation: none)
Clc1ccc(Cn2c(CN3CCCC3)nc3ccccc32)cc1 [Clemizole],0.442,0.667,0.378,0.381
COc1cccc(OC)c1C(=O)OCc1cc(O)ccc1OC1OC(CO)C(O)C(O)C1O (stereo unspecified) [Curculigoside],1.35,0.852,1.51,0.813
NC(CC(=O)N1CCn2c(nnc2C(F)(F)F)C1)Cc1cc(F)c(F)cc1F.O.O=P(O)(O)O (stereo unspecified) [Sitagliptin phosphate monohydrate],0.85,0.848,0.851,0.886
O=C(O)CSc1nnc(Br)n1-c1ccc(C2CC2)c2ccccc12 [Lesinurad],0.847,0.717,0.665,0.701
C=CCc1ccc(O)c(-c2cc(CC=C)ccc2O)c1 [Magnolol],0.532,0.571,0.704,0.6
O=C(O)CCNC(=O)c1ccccc1 [Betamipron],0.843,1.19,0.718,0.825
O=C1CC(c2ccc(OC3OC(CO)C(O)C(O)C3O)cc2)Oc2cc(O)ccc21 (stereo unspecified) [Liquiritin],0.695,0.761,0.559,0.64
Cc1ccccc1C(=O)Nc1ccc(C(=O)N2CCCC(N(C)C)c3ccccc32)cc1 (stereo unspecified) [Mozavaptan],0.836,1.13,0.78,1.08
COc1ccc(-c2cc(=O)c3c(O)cc(OC4OC(COC5OC(C)C(O)C(O)C5O)C(O)C(O)C4O)cc3o2)cc1O (stereo unspecified) [Diosmin],0.836,0.764,0.78,0.637
CC(N)(Cc1ccc(O)c(O)c1)C(=O)O (stereo unspecified) [Methyldopa],1,1.35,0.841,0.761
CC1=C(C/C=C(\C)CCCC(C)CCCC(C)CCCC(C)C)C(=O)c2ccccc2C1=O (stereo unspecified) [Vitamin K1],0.786,0.72,0.702,0.482
CC(C)(C(=O)c1cccnc1)c1cccnc1 [Metyrapone],0.826,0.809,0.788,0.72
CCCCOC(=O)CCCCCCCCC(=O)OCCCC [Dibutyl sebacate],0.84,0.745,0.749,0.529
CC(C)CCCC(C)N.Cl (stereo unspecified) [Octodrine (2-Amino-6-methylheptan)],1.02,0.617,0.983,0.466
Nc1nc(=O)c2nc(CNc3ccc(C(=O)NC(CCC(=O)O)C(=O)O)cc3)cnc2[nH]1 (stereo unspecified) [Folic acid],0.969,0.66,0.927,0.637
NCCC(O)C(=O)NC1CC(N)C(OC2OC(CN)C(O)C(O)C2O)C(O)C1OC1OC(CO)C(O)C(N)C1O.O=S(=O)(O)O.O=S(=O)(O)O (stereo unspecified) [Amikacin disulfate],0.976,1.07,0.896,1.07
Nc1ccc(C(=O)O)c(O)c1 [4-Aminosalicylic acid],0.896,0.868,1.01,0.718
COC1/C=C/OC2(C)Oc3c(C)c(O)c4c(O)c(c5c(nc6cc(C)ccn65)c4c3C2=O)NC(=O)/C(C)=C\C=C\C(C)C(O)C(C)C(O)C(C)C(OC(C)=O)C1C (stereo unspecified) [Rifaximin],0.809,1.05,0.932,1.15
CC(C)(c1ccc(O)cc1)c1ccc(O)cc1 [Bisphenol A],0.709,0.636,0.871,0.806
CCCCc1oc2ccccc2c1C(=O)c1cc(I)c(OCCN(CC)CC)c(I)c1.Cl [Amiodarone HCl],0.644,1.03,0.784,1.71
Oc1c(Br)cc(Br)c2cccnc12 [Broxyquinoline],0.542,0.809,0.407,0.403
Cc1ccccc1OCC(O)CO (stereo unspecified) [Mephenesin],0.614,0.591,0.858,0.656
CC(C)NCC(O)COc1ccc(CCOCC2CC2)cc1.Cl (stereo unspecified) [Betaxolol HCl],0.929,0.672,0.83,0.743
C[N+](C)(CCOc1ccccc1)Cc1ccccc1.O=C([O-])c1cc2ccccc2cc1O [Bephenium Hydroxynaphthoate],0.884,0.934,0.89,0.958
O=C(O)c1ccc(O)c(O)c1 [Protocatechuic acid],0.766,0.621,0.703,0.538
C=CC(C)(O)CCC1C(C)(O)CCC2C(C)(C)CCCC21C (stereo unspecified) [Sclareol],1.05,0.943,1.27,1.29
Nc1nc(NC2CC2)c2ncn(C3C=CC(CO)C3)c2n1.Nc1nc(NC2CC2)c2ncn(C3C=CC(CO)C3)c2n1.O=S(=O)(O)O (stereo unspecified) [Abacavir sulfate],0.758,0.909,0.742,1.01

# From the supplement of paper PMC9174493
